Source: paper PMC4336329 (PLoS ONE, 2015)
Among all 310,000 compounds or so, about 2,200 (0.71%) showed an effect of 50% or more. The effect is printed as a negative number. The list shows a part of the results.

Each compound was assayed against human ether-à-go-go-related gene (hERG) potassium channel (human, UniProt Q12809) (assay: primary screen, population patch clamp on CHO cells stably expressing hERG).
Sequence of human ether-à-go-go-related gene (hERG) potassium channel (Q12809 whole entry, looked up): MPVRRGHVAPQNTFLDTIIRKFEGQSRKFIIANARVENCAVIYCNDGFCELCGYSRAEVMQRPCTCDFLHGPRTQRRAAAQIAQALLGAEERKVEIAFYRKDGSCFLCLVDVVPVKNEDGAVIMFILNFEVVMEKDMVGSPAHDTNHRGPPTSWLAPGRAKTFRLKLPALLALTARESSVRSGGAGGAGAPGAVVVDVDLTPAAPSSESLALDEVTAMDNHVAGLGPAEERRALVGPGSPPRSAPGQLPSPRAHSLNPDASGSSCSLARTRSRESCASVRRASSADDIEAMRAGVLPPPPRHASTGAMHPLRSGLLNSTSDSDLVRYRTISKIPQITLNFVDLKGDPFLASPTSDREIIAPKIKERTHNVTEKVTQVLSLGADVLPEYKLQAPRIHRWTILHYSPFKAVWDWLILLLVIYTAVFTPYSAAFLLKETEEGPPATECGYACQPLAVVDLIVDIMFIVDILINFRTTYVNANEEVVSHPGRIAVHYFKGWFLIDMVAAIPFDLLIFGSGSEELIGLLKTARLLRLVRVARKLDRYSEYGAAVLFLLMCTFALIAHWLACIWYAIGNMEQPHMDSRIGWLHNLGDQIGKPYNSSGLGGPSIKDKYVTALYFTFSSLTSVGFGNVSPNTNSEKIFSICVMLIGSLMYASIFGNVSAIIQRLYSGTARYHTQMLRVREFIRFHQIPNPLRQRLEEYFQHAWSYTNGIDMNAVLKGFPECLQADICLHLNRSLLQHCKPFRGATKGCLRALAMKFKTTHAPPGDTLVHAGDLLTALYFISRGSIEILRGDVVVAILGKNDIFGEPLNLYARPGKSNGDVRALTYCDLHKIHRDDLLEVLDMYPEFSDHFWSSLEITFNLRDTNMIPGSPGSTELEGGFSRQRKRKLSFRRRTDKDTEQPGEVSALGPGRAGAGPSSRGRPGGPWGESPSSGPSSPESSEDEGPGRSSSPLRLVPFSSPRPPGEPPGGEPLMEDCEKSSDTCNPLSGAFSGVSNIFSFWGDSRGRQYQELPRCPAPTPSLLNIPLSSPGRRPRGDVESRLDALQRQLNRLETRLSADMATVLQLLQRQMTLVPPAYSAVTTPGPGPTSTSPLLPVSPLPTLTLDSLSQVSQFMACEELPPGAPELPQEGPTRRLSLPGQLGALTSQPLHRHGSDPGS

In order of falling “hERG current change (%, negative = inhibition) at 1uM” value:
1. CCOC(=O)C(=O)NC12CC3CC(CC(C3)C1)C2  28.7%
2. CC1CCCCN1CCCNC(=O)Cn1ncc2c([nH]c3ccccc32)c1=O (stereo not drawn)  25.8%
3. CN(Cc1ccccc1NC(=O)c1ccc(S(=O)(=O)N(C)C)cc1)C1CCCCC1  24.7%
4. COCCN(C(=O)CSc1nnc(-c2ccccc2C)n1C)c1c(N)n(Cc2ccccc2)c(=O)[nH]c1=O  21.7%
5. CC(=O)Nc1ccc(NC(=O)COC(=O)c2cnccn2)cc1  18.7%
6. OC(C[n+]1ccccc1)c1ccccc1.[Br-] (stereo not drawn)  18.6%
7. COc1ccc(CC(=O)OC(C)C(=O)c2ccc(C)cc2)cc1 (stereo not drawn)  17%
8. COCCN(C(=S)Nc1cccc(C)c1C)C(C)c1ccco1 (stereo not drawn)  16.3%
9. O=C(C1=C(O)C(=O)N(CCCN2CCOCC2)C1c1ccc(Cl)cc1)c1cc2ccccc2o1 (stereo not drawn)  15.8%
10. O=S(=O)(c1ccccc1)c1ccc(C(F)(F)F)cn1  14.9%
11. O=C1C(=O)N(CCN2CCOCC2)C(c2ccc([N+](=O)[O-])cc2)/C1=C(/O)c1ccc2c(c1)OCO2 (stereo not drawn)  14.5%
12. O=C(Oc1ccc(Br)cc1C(=S)N1CCOCC1)c1ccc(F)cc1  13.9%
13. CNC(=O)c1cc(-c2ccc(Cl)cc2)n(-c2ccccc2)n1  13.8%
14. COC(=O)[C@@H]1C[C@@]1(C)[C@@H](NP(=O)(c1ccccc1)c1ccccc1)c1ccccc1  13.6%
15. CCOc1ccc(NC(=O)CCNS(=O)(=O)c2ccc3c(c2)oc(=O)n3C)cc1  13.5%
16. COCCN(C(=S)Nc1cccc(C)c1)C(C)c1cccs1 (stereo not drawn)  13.3%
17. CCCCC(=O)N(Cc1ccc2c(c1)OCO2)Cc1nc2ccccc2c(=O)[nH]1  13.1%
18. Cc1ccc2[nH]cc(S(=O)(=O)c3ccc(C(C)C)cc3)c(=O)c2c1  13%
19. COc1cc(C(=O)NCc2nnc(SCC(=O)Nc3cc(C)cc(C)c3)o2)cc(OC)c1OC  13%
20. Cc1ccc(N(CC(=O)NCCc2ccc(Cl)cc2)S(=O)(=O)c2c(C)noc2C)cc1  12.9%
21. CCOC(=O)c1cnc(-n2nc(C)cc2C)nc1NCCO  12.9%
22. Cc1c(C(C)C)c(=O)n(-c2ccc(S(=O)(=O)NC(C)C)cc2)n1C  12.5%
23. Cc1ccc2c(c1)cc1c(=O)n(CC(=O)NCCN3CCCC3)nc(C)n12  12.5%
24. CCOC(=O)CN1CC23C=CC(O2)C(C(=O)Nc2ccc4c(c2)OCO4)C3C1=O (stereo not drawn)  12.5%
25. CCSc1nc(C)nc2c1oc1ccccc12  12%
26. COc1ccc(S(=O)(=O)N2CCCCCC2)cc1NC(=O)c1ccccc1F  12%
27. CCOC(=O)c1ccccc1N1C(=O)CSC1=S  11.9%
28. O=C(Nc1c(C(=O)N2CCCCC2)cnn1-c1ccccc1)c1ccccc1  11.6%
29. O=C(Nc1nnc(SCc2ccccn2)s1)C1CC(=O)N(c2ccc(F)cc2)C1 (stereo not drawn)  11.2%
30. CCCCCCNC(=O)N[C@H](C(=O)NCCC[C@H]1CN2C(=NC[C@H]2C)N1CCC(c1ccccc1)c1ccccc1)C(C)O (stereo partly drawn)  11.1%
31. Cc1nc2ccccc2n1CCOc1ccccc1  11%
32. CN1CCC(NC(=O)Nc2cccc(C(F)(F)F)c2)CC1  10.7%
33. CCOc1ccc(C(=O)NC2CCCCCCC2)cc1  10.6%
34. CN(NC1OC(=O)c2ccccc21)c1ccc(Cl)cc1[N+](=O)[O-] (stereo not drawn)  10.6%
35. Cc1c(-c2ccc(F)cc2)[n+](=O)c(-c2ccc(F)cc2)c(C)n1[O-]  10.2%
36. COc1ccccc1NC(=O)Cc1csc(NC(=S)Nc2ccccc2)n1  10%
37. Cl.N/N=c1\sc2ccccc2n1-c1ccccc1  9.97%
38. CCOC(=O)CC(NS(=O)(=O)c1ccc(OC)c(C)c1)c1cccc([N+](=O)[O-])c1 (stereo not drawn)  9.68%
39. Cc1ccccc1Oc1nc2c(C)cccn2c(=O)c1/C=C(\C#N)C(=O)Nc1c(C)n(C)n(-c2ccccc2)c1=O  9.52%
40. Cc1ccc(C)c(NC(=O)C2CCCN(S(=O)(=O)c3c(C)noc3/C=C/N(C)C)C2)c1 (stereo not drawn)  9.51%
41. C=CCOC(=O)C1=C(C)N(C)C(=O)NC1c1cc2c(cc1Br)OCO2 (stereo not drawn)  9.5%
42. CCC(=O)NCCn1ccc2ccccc21  9.26%
43. Cc1cc(N)ccc1S(C)(=O)=O  8.89%
44. CC(C#N)(NC(=O)CN1CCN(S(=O)(=O)c2ccccc2C#N)CC1)C1CC1 (stereo not drawn)  8.82%
45. O=C(COC(=O)c1ncc(Cl)c(Cl)c1Cl)NCc1ccccc1  8.74%
46. O=C(CCCC1=NS(=O)(=O)c2ccccc2N1)N1CCN(c2ccccc2)CC1  8.63%
47. N#CC1=C(N)C2=CCCC[C@H]2[C@H](c2ccccc2)C1(C#N)C#N  8.49%
48. Cc1csc(NC(=O)c2cc3c(C)nn(Cc4ccccc4Cl)c3s2)n1  8.47%
49. O=C(CSc1nc2ncccc2[nH]1)c1cccc([N+](=O)[O-])c1  8.27%
50. Cc1nc2cc(NC(=O)Nc3ccc(Br)cc3)ccc2o1  8.23%
51. CCOc1cc(S(=O)(=O)NCCCN2CCOCC2)ccc1F  8.13%
52. NS(=O)(=O)c1cnccc1Nc1ccc(Cl)cc1  7.8%
53. S=c1[nH]nc(-c2cnccn2)n1-c1ccccc1  7.76%
54. Br.COc1ccc(C2=CSC3=NCCN23)cc1OC  7.66%
55. CCCC(c1nnnn1Cc1ccc(F)cc1)N1CCN(C)CC1 (stereo not drawn)  7.54%
56. COC(=O)c1ccc(/C=N/NC(=O)CC(=O)NCc2cccnc2)cc1  6.92%
57. CCOC(=O)c1ccc(N(C(=O)c2ccco2)C(C(=O)NC2CCCCC2)c2ccncc2)cc1 (stereo not drawn)  6.81%
58. COc1ccc(Cl)cc1NC(=O)CCc1nnc2ccc(N3CCC4(CC3)OCCO4)nn12  6.73%
59. COC(=O)c1ccc(CNC(=O)C2CCC(=O)N(CCCc3ccccc3)C2)cc1 (stereo not drawn)  6.59%
60. CCc1nn(C)c(-c2n[nH]c(=S)n2N)c1Cl  6.24%
61. CCCc1cc(C(=O)Nc2c(C)n(C)n(-c3ccccc3)c2=O)no1  6.05%
62. COc1cc(/C=C/C(=O)Nc2ccccc2C(F)(F)F)cc(OC)c1OC  6.01%
63. CCOP1(=O)C=C(C(C)(C)C)OC1c1ccc(F)cc1 (stereo not drawn)  5.43%
64. CN(C)c1ccnc(-n2cccc2/C=N/O)c1C#N  5.37%
65. Cc1ccc(CN(C)C(=O)C2CCCN2C(=O)c2cccs2)o1 (stereo not drawn)  5.28%
66. CCCS(=O)c1nc(C)cc(C)c1S(C)(=O)=O (stereo not drawn)  4.95%
67. C=CCn1c(-c2cc3c(s2)CCC(CC)C3)n[nH]c1=S (stereo not drawn)  4.9%
68. O=C(Nc1ccc(F)cc1)C(c1ccccc1)N1CCN(S(=O)(=O)c2ccccc2)CC1 (stereo not drawn)  4.88%
69. O=C(C1=C[C@H](C2CCCCC2)C[C@H](OCc2ccc(CO)cc2)O1)N1CCN(Cc2ccc3c(c2)OCO3)CC1  4.68%
70. COc1ccccc1N(CC(=O)NCCSc1ccccc1)S(=O)(=O)c1ccccc1  4.58%
71. CC1CCN(C(=O)C(C)Sc2nc(-c3ccccc3)cc(C(F)(F)F)n2)CC1 (stereo not drawn)  3.09%
72. O=C1CN(C(=O)c2c(F)cccc2F)C(c2ccc(F)cc2)c2cc(F)ccc2N1 (stereo not drawn)  2.28%
73. CCCCN(C(=O)CC1CCCCC1)c1c(N)n(CC(C)C)c(=O)[nH]c1=O  1.82%
74. Cc1cc(-c2n[nH]c(=S)o2)c(C)n1-c1ccccc1  -0.769%
75. O=C(/C=C/c1cccc([N+](=O)[O-])c1)N1CCOCC1  -3.15%
76. CCOC(=O)C1CCN(Cc2cnc(Oc3ccc(Cl)cc3C)s2)CC1  -3.38%
77. C/C(Cl)=C/Cn1c(N2CCCC2)nc2c1c(=O)[nH]c(=O)n2C  -3.41%
78. Brc1ccc(-c2cn3nc4c(nc3n2)CCCC4)cc1  -4.68%
79. CN1CCN(c2ccc(NS(=O)(=O)c3ccc(Cl)cc3)cn2)CC1  -4.7%
80. CCOc1ccc(NCc2cccn2-c2nnc(N3CCC(C(=O)NCCCN4C(C)CCCC4C)CC3)s2)cc1 (stereo not drawn)  -5.16%
81. Cc1cc2cc(CN(CC3CCCO3)C(=S)Nc3ccccc3)c(=O)[nH]c2cc1C (stereo not drawn)  -5.73%
82. COc1ccc(-c2cc(N)n(S(=O)(=O)c3c(F)c(F)c(F)c(F)c3F)n2)cc1OC  -6.97%
83. O=C(NCc1ccc2c(c1)OCO2)c1ccc(-n2cnnn2)cc1  -7.33%
84. COc1ccc(CN2CCCC(C(=O)c3ccc(Cl)cc3)C2)c(O)c1 (stereo not drawn)  -21.3%
85. COc1ccc(Nc2nc(N)nc(CN3CCc4ccccc4C3)n2)cc1  -23.3%
86. O=C(NCCCn1ccnc1)/C(=C\c1cccs1)NC(=O)c1cccs1  -27.6%
87. COc1ccc(OCC(=O)N2CCC3(CC2)CC(=O)c2ccccc2O3)cc1  -70.2%
